Experimental data as given in a compilation of properties of binary mixtures (doi:10.1016/j.molliq.2012.02.004).
Some of these densities may be calculated back from excess volumes.

Assay: xn = mol fraction of the nth substance listed
Conditions: 101 kPa

CCCCCC[n+]1ccn(C)c1.F[B-](F)(F)F + CC(C)O
mass density [kg/m3]
Conditions | x2 = 0 | x2 = 0.1493 | x2 = 0.2289 | x2 = 0.2991 | x2 = 0.3752 | x2 = 0.4942 | x2 = 0.5845 | x2 = 0.7067 | x2 = 0.762 | x2 = 0.9165
293.15 K | 1149.2 | 1129.8 | 1117.5 | 1104.9 | 1089.5 | 1060.5 | 1033.5 | 987.1 | 961.3 | –
303.15 K | 1142.5 | – | 1110.6 | 1097.9 | – | 1053.2 | – | – | – | 854.7
313.15 K | 1135.8 | 1116.1 | 1103.6 | 1090.9 | 1075.3 | 1046 | 1018.7 | 971.8 | – | 846.5
323.15 K | – | 1109.3 | – | 1083.9 | 1068.2 | 1038.8 | 1011.4 | 964.1 | 937.9 | 838
333.15 K | – | – | 1089.8 | 1076.9 | – | 1031.5 | 1003.8 | 956.3 | – | 829.2

CC(C)O + CCCCCC[n+]1ccn(C)c1.F[B-](F)(F)F
x1 = 1
Conditions | mass density [kg/m3]
293.15 K | 785.3
303.15 K | 776.8
313.15 K | 768
323.15 K | 758.8
333.15 K | 749.2
